Data as given in the RNAGym collection of RNA variant scans (doi:10.1073/pnas.2313332121).
This sample is rich in variants without activity.

B1: TPR 5TU (parent)
chain: GGAUCUUCUCGAUCUAACAAAAAAGACAAAUCUGCCACAAAGCUUGAGAGCAUCUUCGGAUGCAGAGGCGGCAGCCUUCGGUGGCGCGAUAGCGCCAACGUUCUCAACUAUGACACGCAAAACGCGUGCUCCGUUGAAUGGAGUUUAUCAUG

Variants of: B1
Assay: polymerase ribozyme fitness, log enrichment relative to wild type (log ratio); higher = more active; in vitro selection for triplet polymerase activity
Method in brief: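 Each subunit of a heterodimeric triplet polymerase ribozyme was represented by a PCR-built, transcribed mutant library that underwent triplicate single-round in vitro selection with frozen incubation at −7 °C. Extended constructs were recovered by gel excision, streptavidin-bead capture and RT-PCR, and Illumina sequencing of input and output libraries kept genotypes with ≥10 input reads and ≥1 read per output. Fitness is the logarithm of genotype enrichment relative to wild-type enrichment, from inverse-variance-weighted replicate averages, with a logarithm base of 2.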

Polymerase ribozyme fitness (log ratio), ≤ -4.2:
GGAUCUUCUCAAUCUAACAACAAAGACAAAUCUGCCACACAGCUUGAGAGCAUCUUCGGAUGCAGAGGCGGCAGCAUUCGGUGGUGCGAUAGCGCCAACGUUCUCAACUAUGACACGCAAAACGCGUGCUCCGUUGAAUCGAGUUUAUCAUG
GGAUCUUCUCAAUCUAGCAAAAACGUCAAAUCUGCCACAAAGCUUGAGAGCAUCUUCGGAUGCAGAGGCGGCAGCCUUCGGUGGUACGAUAGCGCCAACGAUCUCAACUAUGACACGCAAAACGCGUACCCCGUUGAAUGGAGUUUAUCAUG
GGAUCUUCUCAAUCUAACAUAAAAGCCAAAUCUGCCACAAAGCUACAGAGCAGCUUCGGAUGCAGAGGCGGCAGCCUUCGGUGGCGCGAUUGCGCAAACGUUCUCCACUAUGACACGCAAAACGCGUGGUCCGUUCAAUGGAGUUUAUCAUG
GGAUCUUCUCAAUCUAACAAUAAAGACAAAUCUGCCACAAAGCUUGAGAGCAUCUUCGGAUGCAGAGGCGGCGGCCUUCGGUGGCGCGAUAGUGCCAACGUUCUCAACUAUGACACGCAGAACGCGUGCUCCGUUGAAUGGAGUUUACCAUG
GGAUCUUCUCAAUCUAACAUAAAAGACAAAUCUGCCACAGAGCUUGAGAGCAUCUUCGGAUGCAGAGGCGGCAGCCUUCGGUGGCGUGAUAGCGCCAACGUUCUCAACUAUGACACGCAAAACGCGUGCUCCGUUGAAGGGAGUUUAUCAUG
GGAUCUUCUCAAUCUAACCAAAAAGACAUACCUGCCACAAAGCUUGAGAGCAUCUUCGGAUGCAGAGGCGGCCGCCUUCGGUGUCGCGAUAGCGCCAACGUUCUCAACUAUGACACGCAAAAAGCGUGCUCCGUUGAAUGCAGUUUAUCAUG
GGAUCUUCUCAAUCUAGCAAAAAAGACACAUCUGCCACACACCUUGAGAGCAUCUUCGGAUGCAGACGCGGCAGCCUUCGGUGGCGCGAUAGCACGCACGUUCUCAACUAUGACACGUAUAACGCGUGCUCCUUUGAAUGGAGUUUAUCAUG
GGAUCUUCUCAAUCUAACAAAAUAGACAAAUCUGCCACAAAGCUUGAGAGCAUCUUCGGAUGCAGAGGCGGCAGCCUUCGGUUGCGCGAUGGCGCCAACGUUCUCAACUAUGACACGCAAAACGCGUGCUCCGUAGAAUGGAGUUUAUCAUG
GGAUCUUCUCAAUCUAACACAAAAGACAAAUCUGCCACAACGCUUGAAAGCAUCUUCGGAUGCAGCGGCGACAGCCUUUGGUGGCGCGAUAGCGCCAACGUCCUCAACUAUGACACGCAAAACGCGUGCUCCGUUGAAUGGAGUUUAUCAUG
GGAUCUUCUUGAUCUAACAAAAAAGACAAAUCUGCCACAAAGCUUGAGAGCAUCUUCGGAUGCAGAGGCGGCAGCCUUCGGUGGCGCGAUAGCGCCAACGUUCUCAACUAUGACACGCAAAACGCGUGCUCCGUUGAAUGGAGUUUAUCAGG
GGAUCUUCUCAAUCUAACAAUAAAGACAAAUCUGCCACAAAGCUUGAGAGCAUCUUCGGAUGCAGAGGCGGCAGCCUUCGGUGGCGCGAUUGCGCCAUCGUUCUCAACAAUGACACGCAAAACGCGUGCUCCGUUGAAUGGAGUUUAUCAUG
GGAUCUUCUCAAUCUAACAUAGAAGACAAAUCUGCCACAAUGCUUGAGAGCAUCUUCGGAUGCAGAGGCGGCAGCCUUCGGUGGCGCGAUAGCGCAAUCGUUCUCAACUAUGACAUGCAAAACGCGUGCUCCGUUGAAUGGAGUUUAUCAUG
GGAUCUUCUUGAUCUAACAAAAAAGACAAAUCUGCCACAAAGCUUGAGAGCAUCUUCGGAUGCAGAGGCGGCAGCCUUCGGUGGCGCGAUAGCGCCAACGUACUCUACUAUGACACGCAAAACGCGUGCUCGGUUGAAUGGAGUUUAUCAUG
GGAUCUUCUUGAUCUAACAAAAAAGACAAAUCUGCCACAAAGCUUGAGAGCAUCUUCGGAUGCAGAGGCGGCAGCCUACGGUGGCACGAUAGCGCCAACGUUCUCAGCUAUGACACGCAAAACACGUGCUCCGUUGAAUACAGUUUAUCAUG
GGAUCUUCUUGAUCUAACAAAAAAGACAAAUCUGCCACAAAGCUUGAGAGCAUCUUCGGAGGCAGAGGCGGCAGCCUUCGGUGGCGCGAUAGCGGCAACGUUCUCAACUAUGACACGCAAAACGUGUGCUCCGUUGAAUGGAGUUUAUCAUG
GGAUCUUCUCAAUCUAACGAAAAAGACAAAUAUGCCACAAAGCUUGAGAGCAUCUUCGGAUGCAGAGGCGGCAGCCUUCGGUGGCGCGAUAGCACCAACGUUCUCAACUAUGACACGCAAAACGCGUGCUCCGUUGUAUGGAGUUUAUCAUG
GGAUCUUCUCAAUCUAACAAGAAAGACAAAUCUGCCAUAAAGCUUGAGAGCAUCUUCGGAUGCAGAGGCGGCAGCCUUCGGUGGCGCGAUAGCACCAACGUUCUCAUCUAUGAUACGCAAAACGCGUGCUCCGUUGAAUGGAGUUUAUCAUG
GGAUCUUCUUGAUCUAACAAAAAAGACAAAUCUGCCACAAAGCUUGAGAGCAUCUUCGGAUGCAGAGGCGGCAGCCUUCGGUGGCGCGAUAGCGCCAACGUUCUCAACUAUGACACGCAAAACGCGUGCUCCGUAGAAUGAAGUUUAUGAUG
GGAUCUUCUCAAUCUAACAAAAAAGUCAAAUCUGCCACAAAGCUUGAAAGCAUCUUCGGAUGCAGAGGCGGCAGCCUUCGGUGGCGCGAUAGCGCCAACGUUCUCAACCAUGACACGCAAAACGCGUGCUCCGUUGAAUGGAGUUUGUCAUG
